These are yes or no findings as the source states them, for the method shown. Binding seen in cells or lysates may run through a third protein. Some binding calls cover weakened binding; strength is not graded here. For part of these data: Sequences can lack the tags named with a protein.

Protein sequences, listed by entry. Tags and fused reporters are not part of them.
UniProt Q8N122: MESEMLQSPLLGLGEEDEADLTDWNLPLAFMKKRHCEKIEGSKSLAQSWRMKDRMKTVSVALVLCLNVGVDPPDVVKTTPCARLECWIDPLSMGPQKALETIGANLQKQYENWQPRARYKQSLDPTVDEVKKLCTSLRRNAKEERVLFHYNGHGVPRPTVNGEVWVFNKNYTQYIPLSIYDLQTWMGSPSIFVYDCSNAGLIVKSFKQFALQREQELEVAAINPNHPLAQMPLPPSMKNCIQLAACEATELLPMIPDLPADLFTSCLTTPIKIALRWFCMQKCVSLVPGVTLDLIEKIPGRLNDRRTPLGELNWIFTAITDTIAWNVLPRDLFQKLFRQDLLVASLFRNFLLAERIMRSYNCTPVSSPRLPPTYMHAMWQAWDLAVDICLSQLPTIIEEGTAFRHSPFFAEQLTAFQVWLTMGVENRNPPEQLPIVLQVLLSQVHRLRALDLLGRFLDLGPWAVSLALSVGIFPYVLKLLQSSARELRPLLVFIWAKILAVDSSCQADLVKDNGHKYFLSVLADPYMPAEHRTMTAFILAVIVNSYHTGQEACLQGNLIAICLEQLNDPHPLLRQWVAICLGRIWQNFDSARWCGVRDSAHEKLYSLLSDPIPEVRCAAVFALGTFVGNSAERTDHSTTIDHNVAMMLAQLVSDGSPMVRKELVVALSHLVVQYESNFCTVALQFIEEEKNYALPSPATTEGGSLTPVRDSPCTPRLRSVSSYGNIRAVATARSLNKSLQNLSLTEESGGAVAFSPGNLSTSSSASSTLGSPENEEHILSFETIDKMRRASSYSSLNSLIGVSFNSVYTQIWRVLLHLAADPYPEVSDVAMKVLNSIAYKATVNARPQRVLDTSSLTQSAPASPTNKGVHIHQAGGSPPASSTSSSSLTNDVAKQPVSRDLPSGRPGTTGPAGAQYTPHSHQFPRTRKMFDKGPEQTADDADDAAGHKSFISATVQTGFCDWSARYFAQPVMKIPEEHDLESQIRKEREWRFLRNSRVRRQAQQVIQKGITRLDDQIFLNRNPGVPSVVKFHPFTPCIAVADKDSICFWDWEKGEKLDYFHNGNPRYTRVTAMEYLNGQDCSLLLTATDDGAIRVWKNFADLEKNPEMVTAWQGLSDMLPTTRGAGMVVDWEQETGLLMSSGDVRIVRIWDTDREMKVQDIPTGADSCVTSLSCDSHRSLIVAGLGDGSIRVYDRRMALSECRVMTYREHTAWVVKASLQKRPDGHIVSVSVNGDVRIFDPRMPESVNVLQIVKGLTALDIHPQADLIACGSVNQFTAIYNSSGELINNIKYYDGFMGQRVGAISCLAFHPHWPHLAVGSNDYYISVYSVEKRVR
UniProt Q16531: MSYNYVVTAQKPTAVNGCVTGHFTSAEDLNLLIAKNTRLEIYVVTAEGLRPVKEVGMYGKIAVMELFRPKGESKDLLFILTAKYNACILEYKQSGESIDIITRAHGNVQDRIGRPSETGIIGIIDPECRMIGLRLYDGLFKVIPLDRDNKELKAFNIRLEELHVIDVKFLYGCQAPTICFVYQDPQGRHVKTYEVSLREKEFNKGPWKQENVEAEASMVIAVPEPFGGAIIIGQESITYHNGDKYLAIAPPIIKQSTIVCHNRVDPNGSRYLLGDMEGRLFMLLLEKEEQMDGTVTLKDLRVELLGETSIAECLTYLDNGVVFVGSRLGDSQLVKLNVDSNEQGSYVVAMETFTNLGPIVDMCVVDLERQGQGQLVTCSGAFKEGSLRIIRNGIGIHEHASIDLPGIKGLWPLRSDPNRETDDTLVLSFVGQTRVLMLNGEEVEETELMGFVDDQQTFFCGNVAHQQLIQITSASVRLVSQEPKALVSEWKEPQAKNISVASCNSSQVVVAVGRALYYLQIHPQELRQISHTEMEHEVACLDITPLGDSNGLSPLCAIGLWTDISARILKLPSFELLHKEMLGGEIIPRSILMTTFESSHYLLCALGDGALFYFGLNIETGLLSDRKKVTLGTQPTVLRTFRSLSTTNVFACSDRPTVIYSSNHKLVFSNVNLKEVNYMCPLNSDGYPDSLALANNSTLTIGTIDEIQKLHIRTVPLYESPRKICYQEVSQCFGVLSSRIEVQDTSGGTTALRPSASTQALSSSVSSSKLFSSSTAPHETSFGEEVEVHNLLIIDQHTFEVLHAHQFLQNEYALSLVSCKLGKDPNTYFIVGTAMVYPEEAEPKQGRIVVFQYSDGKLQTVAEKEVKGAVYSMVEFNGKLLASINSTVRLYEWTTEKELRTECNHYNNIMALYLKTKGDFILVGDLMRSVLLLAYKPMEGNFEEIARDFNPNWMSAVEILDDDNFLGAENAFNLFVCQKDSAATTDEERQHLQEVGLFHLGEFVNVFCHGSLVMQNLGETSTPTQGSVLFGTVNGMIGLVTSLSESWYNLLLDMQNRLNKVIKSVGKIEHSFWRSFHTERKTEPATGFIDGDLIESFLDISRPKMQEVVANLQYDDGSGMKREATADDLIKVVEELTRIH
UniProt Q8K4Q0: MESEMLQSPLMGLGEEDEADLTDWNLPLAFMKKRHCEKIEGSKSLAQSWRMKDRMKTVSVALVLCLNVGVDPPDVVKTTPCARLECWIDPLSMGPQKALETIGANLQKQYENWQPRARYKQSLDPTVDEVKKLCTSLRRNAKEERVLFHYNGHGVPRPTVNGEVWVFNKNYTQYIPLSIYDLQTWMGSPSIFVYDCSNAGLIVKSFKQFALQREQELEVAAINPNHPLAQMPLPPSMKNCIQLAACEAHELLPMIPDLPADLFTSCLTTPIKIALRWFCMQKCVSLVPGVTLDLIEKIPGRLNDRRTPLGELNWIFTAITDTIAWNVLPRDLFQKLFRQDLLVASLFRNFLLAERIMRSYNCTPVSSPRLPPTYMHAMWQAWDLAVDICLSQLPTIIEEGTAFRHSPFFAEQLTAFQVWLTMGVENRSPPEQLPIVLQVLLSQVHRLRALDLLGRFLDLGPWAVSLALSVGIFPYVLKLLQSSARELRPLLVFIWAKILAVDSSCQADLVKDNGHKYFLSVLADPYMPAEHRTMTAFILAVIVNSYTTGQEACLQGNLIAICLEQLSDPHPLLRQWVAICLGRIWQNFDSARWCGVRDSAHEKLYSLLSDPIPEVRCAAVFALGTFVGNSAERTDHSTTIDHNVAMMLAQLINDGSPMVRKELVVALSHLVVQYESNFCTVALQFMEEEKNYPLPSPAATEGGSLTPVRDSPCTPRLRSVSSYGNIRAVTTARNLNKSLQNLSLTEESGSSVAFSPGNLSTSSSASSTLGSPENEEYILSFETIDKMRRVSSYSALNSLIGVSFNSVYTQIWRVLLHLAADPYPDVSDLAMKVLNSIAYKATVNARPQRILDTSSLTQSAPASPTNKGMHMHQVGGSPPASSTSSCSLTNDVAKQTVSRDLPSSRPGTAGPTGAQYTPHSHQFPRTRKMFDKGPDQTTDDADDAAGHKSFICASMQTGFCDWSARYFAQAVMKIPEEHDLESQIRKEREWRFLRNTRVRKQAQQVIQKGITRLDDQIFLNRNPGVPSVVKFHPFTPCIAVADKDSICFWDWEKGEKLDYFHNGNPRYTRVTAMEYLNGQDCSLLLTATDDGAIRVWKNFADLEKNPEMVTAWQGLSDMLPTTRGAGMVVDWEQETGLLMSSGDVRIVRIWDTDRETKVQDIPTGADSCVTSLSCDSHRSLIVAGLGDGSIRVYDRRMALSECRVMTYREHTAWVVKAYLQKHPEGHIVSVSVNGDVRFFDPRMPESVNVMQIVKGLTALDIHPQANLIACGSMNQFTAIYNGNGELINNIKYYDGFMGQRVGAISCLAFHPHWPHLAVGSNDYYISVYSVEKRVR

The target in assay [1] is Raptor (293T and HepG2 cells, precipitated with Raptor antibody) (human (endogenous in 293T and HepG2)) (UniProt Q8N122). The assay is described as follows: co-IP; 293T cells with or without PPDPF overexpression; immunoprecipitation with Raptor antibody.
Assay [2] has the same target. As to the kind of experiment: co-IP; control and PPDPF-overexpressing HepG2 cells, resting or treated with PA; immunoprecipitation with Raptor antibody.
A further assay deals with T1, GST-PPDPF (human) (UniProt Q9H3Y8).
T1 sequence: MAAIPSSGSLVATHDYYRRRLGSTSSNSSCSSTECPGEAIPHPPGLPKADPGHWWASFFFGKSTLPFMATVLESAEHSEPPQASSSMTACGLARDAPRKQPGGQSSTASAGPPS
The assay is described as follows: pull-down; purified GST fusion protein incubated with lysate of cultured cells overnight at 4 °C, then GST beads 1 h at 4 °C, western blotting; only the target purified.

Assay [3] concerns the target T2, HA-PPDPF (human) (UniProt Q9H3Y8).
T2 sequence: T1 sequence
As to the kind of experiment: co-IP; 293T cells co-transfected with Flag-DDB1 and HA-PPDPF; immunoprecipitation of Flag-DDB1 or of HA-PPDPF.

Assay [4] addresses T2, HA-PPDPF (human). As to the kind of experiment: co-IP; 293T cells co-transfected with Flag-Raptor and HA-PPDPF; each in turn precipitated.
For assay [5], the target named is T3, GST-fused segment 51-64aa of PPDPF (human) (UniProt Q9H3Y8).
T3 sequence: PGHWWASFFFGKST
As to the kind of experiment: pull-down; purified GST fusion protein incubated with lysate of cultured cells overnight at 4 °C, then GST beads 1 h at 4 °C, western blotting; only the target purified.

The next assay concerns the target T4, GST-PPDPF mut (human) (UniProt Q9H3Y8).
T4 sequence: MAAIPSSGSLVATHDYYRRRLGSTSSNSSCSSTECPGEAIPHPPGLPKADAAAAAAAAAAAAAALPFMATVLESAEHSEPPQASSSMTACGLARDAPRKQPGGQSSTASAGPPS
The assay is described as above.

A further assay has as its target Flag-Raptor (human) (UniProt Q8N122). The assay is described as follows: co-IP; 293T cells co-transfected with Flag-Raptor and HA-PPDPF; each in turn precipitated.
The next assay deals with Flag-DDB1 (human) (UniProt Q16531). The assay is described as follows: co-IP; 293T cells co-transfected with Flag-DDB1 and HA-PPDPF; immunoprecipitation of Flag-DDB1 or of HA-PPDPF.
Assay [6] concerns the target endogenous Raptor (mouse primary hepatocytes and liver) (mouse (endogenous in primary hepatocytes and liver)) (UniProt Q8K4Q0). The assay is described as follows: co-IP; endogenous PPDPF and Raptor in primary hepatocytes.
The next assay concerns the target HA-Raptor (human) (UniProt Q8N122). As to the kind of experiment: co-IP; 293T cells transfected with control vector, PPDPF WT or PPDPF mut and HA-Raptor plasmid; after 48 h.

For the molecule “DDB1 (293T and HepG2 cells) (from UniProt Q16531 1-1140)”, the binding entry in assay [1] and in [2] was “binds” each time.

Consider “DDB1 (in the lysate used for GST pull-down) (from UniProt Q16531 1-1140)”, for which the binding result in the assay with GST-PPDPF (human) was “binds”.

Flag-DDB1 (from UniProt Q16531 1-1140): in the assay with HA-PPDPF (human) [3], the binding entry is given as “binds”.

In the case of “Flag-Raptor (from UniProt Q8N122 1-1335)”, the binding result with HA-PPDPF (human) [4] is “binds”.

In the case of “Raptor (in the lysate used for GST pull-down) (from UniProt Q8N122 1-1335)”, the binding entry in assay [5] is recorded as “binds”; in the assay with GST-PPDPF mut (human) it was “no binding”; with GST-PPDPF (human), “binds”.

B1: HA-PPDPF (protein, UniProt Q9H3Y8 1-114)
chain: T1 sequence
In the case of B1, the binding entry in the assay with Flag-Raptor (human) and with Flag-DDB1 (human) was “binds” in each case.

B2: endogenous PPDPF (mouse primary hepatocytes) (protein, UniProt Q9CR37 1-115)
chain: MAAIPSSGSLVATHDYYRRRLGSSSSSSSGGSAEYPGDAVLQSPGLPKADPGHWWASFFFGKSTLPFMTTVLESPERSAESPQVSRSPMTCGLTPETMKQQPVIHSGQTNPRDLS
For the molecule B2, the binding result in [6] is “binds”.

B3: PPDPF mut (overexpressed in 293T cells, tag not stated) (protein, UniProt Q9H3Y8 1-114)
chain: T4 sequence
Regarding B3, the binding result in the assay with HA-Raptor (human) was “no binding”.

The record behind these values is article PMC8144412.
